# B1: Bispecific Protein #6 (bispecific antibody, human IgG1, kappa)
# heavy 1: EVQLVESGGGLVQPGGSLRLSCAASGFTFTDYTMDWVRQAPGKGLEWVADVNPNSGGSIYNQRFKGRFTLSVDRSKNTLYLQMNSLRAEDTAVYYCARNLGPSFYFDYWGQGTLVTVSSASTKGPSVF[in this place about 250 residues][in this place about 200 residues]
# heavy 2: EVQLVESGGGLVQPGGSLRLSCAASGFTFTDYTMDWVRQAPGKGLEWVADVNPNSGGSIYNQRFKGRFTLSVDRSKNTLYLQMNSLRAEDTAVYYCARNLGPSFYFDYWGQGTLVTVSSASTKGPSVF[in this place about 450 residues with a human IgG1 Fc]
# light: DIQMTQSPSSLSASVGDRVTITCKASQDVSIGVAWYQQKPGKAPKLLIYSASYRYTGVPSRFSGSGSGTDFTLTISSLQPEDFATYYCQQYYIYPYTFGQGTKVEIKRTVAAPSVF[in this place about 200 residues]
# Columns and labels:
# [1] = molecular target: HER2 on HER2^+ tumor cell lines (BT474, OE19, ZR75) (UniProt P04626); assay: cell-based or functional assay
# [2] = molecular target: T1, recombinant human TfR apical domain (human); assay: SPR (Biacore T200 or 8K); protein captured on anti-human Fab chip, recombinant human TfR apical domain as analyte; 1:1 Langmuir fit
# T1 construct: also called transferrin receptor protein 1 apical domain
# Experimental: Affinities of the bispecific proteins were measured by SPR using a Biacore T200 or a Biacore 8K. Biacore™ Series S CM5 sensor chips were immobilized with monoclonal mouse anti-human IgG (Fc) antibody for HER2 affinity measurements or mouse anti-human Fab for TfR affinity measurements (human antibody or Fab capture kit from GE Healthcare). Serial 3-fold dilutions of analyte (recombinant HER2 extracellular domain or recombinant TfR apical domain) were injected at a flow rate of 30 μL/min. Each sample was analyzed using a 3-minute association and a 10-minute dissociation for HER2 extracellular domain binding and a 40-second association and a 3-minute dissociation for human TfR apical domain binding. After each injection, the chip was regenerated using 3 M MgCl₂ or 50 mM glycine at pH 2.0. Binding response was corrected by subtracting the RU from a flow cell capturing an irrelevant IgG at similar density. A 1:1 Languir model of simultaneous fitting of kon and koff was used for kinetics analysis. […] The two constructs are described below.
binder,measurement,setting,value
B1,"IC50 (nM), BT474 + NRG1",[1],5.1 nM
same,"IC50 (nM), BT-474",[1],0.61 nM
same,"IC50 (nM), OE19",[1],0.86 nM
same,"Min Cell viability (%), BT474 + NRG1",[1],40%
same,"Min Cell viability (%), BT-474",[1],26%
same,"Min Cell viability (%), OE19",[1],42%
same,"Min Cell viability (%), ZR75-30",[1],85%
same,Kd,[2],490 nM

# From patent US20230192887A1 (published 2023)
